Data as given in publication PMC5986797, “Laminin heparin-binding peptides bind to several growth factors and enhance diabetic wound healing” (Nature Communications, 2018).
No constants are given. Whether binding was seen depends on the method and setting. Some entries that bind do so weakly or less than the wild type.

By UniProt entry, the sequences of proteins in these tests, tags left out. Where a name states a change or a piece, a line headed by the entry shows the natural chain unless it says otherwise. Chains listed by the source or under a name are the forms on record and can include a tag or linker. Residues count along the entry.
UniProt P18075, residues 293-431: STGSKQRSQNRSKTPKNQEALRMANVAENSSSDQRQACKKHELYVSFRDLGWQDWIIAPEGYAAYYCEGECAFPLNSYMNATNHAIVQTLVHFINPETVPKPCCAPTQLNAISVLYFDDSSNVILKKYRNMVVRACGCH
CXCL-12α (P48061, residues 22-89): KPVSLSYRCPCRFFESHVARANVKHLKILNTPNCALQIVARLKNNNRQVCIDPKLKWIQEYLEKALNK
C–X–C motif ligand (CXCL)-12γ (P48061, form named): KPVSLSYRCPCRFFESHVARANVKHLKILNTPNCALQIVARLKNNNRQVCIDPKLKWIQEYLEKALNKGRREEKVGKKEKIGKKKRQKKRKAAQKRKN
UniProt P05230, residues 16-155: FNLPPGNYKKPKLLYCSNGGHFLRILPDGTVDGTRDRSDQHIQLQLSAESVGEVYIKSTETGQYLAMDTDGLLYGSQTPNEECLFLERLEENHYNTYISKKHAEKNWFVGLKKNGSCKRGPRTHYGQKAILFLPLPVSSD
UniProt O76093, residues 28-207: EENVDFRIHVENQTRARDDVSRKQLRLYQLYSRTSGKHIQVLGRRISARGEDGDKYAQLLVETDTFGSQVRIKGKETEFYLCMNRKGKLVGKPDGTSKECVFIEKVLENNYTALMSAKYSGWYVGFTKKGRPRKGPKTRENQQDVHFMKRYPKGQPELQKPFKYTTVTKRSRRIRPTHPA
UniProt P09038, residues 143-288: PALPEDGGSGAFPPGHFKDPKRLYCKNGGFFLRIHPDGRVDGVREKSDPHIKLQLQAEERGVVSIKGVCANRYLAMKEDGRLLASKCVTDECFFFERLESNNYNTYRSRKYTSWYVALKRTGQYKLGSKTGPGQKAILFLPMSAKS
UniProt P05019, residues 49-118: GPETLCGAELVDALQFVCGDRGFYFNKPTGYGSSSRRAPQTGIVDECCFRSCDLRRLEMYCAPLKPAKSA
UniProt Q99075, residues 63-148: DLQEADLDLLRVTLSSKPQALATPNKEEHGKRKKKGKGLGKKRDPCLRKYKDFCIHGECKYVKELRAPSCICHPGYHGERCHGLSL
UniProt P01127, residues 82-190: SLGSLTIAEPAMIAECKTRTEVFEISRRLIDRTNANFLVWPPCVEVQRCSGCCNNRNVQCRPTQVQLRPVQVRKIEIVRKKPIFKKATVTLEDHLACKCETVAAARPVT
UniProt Q16363: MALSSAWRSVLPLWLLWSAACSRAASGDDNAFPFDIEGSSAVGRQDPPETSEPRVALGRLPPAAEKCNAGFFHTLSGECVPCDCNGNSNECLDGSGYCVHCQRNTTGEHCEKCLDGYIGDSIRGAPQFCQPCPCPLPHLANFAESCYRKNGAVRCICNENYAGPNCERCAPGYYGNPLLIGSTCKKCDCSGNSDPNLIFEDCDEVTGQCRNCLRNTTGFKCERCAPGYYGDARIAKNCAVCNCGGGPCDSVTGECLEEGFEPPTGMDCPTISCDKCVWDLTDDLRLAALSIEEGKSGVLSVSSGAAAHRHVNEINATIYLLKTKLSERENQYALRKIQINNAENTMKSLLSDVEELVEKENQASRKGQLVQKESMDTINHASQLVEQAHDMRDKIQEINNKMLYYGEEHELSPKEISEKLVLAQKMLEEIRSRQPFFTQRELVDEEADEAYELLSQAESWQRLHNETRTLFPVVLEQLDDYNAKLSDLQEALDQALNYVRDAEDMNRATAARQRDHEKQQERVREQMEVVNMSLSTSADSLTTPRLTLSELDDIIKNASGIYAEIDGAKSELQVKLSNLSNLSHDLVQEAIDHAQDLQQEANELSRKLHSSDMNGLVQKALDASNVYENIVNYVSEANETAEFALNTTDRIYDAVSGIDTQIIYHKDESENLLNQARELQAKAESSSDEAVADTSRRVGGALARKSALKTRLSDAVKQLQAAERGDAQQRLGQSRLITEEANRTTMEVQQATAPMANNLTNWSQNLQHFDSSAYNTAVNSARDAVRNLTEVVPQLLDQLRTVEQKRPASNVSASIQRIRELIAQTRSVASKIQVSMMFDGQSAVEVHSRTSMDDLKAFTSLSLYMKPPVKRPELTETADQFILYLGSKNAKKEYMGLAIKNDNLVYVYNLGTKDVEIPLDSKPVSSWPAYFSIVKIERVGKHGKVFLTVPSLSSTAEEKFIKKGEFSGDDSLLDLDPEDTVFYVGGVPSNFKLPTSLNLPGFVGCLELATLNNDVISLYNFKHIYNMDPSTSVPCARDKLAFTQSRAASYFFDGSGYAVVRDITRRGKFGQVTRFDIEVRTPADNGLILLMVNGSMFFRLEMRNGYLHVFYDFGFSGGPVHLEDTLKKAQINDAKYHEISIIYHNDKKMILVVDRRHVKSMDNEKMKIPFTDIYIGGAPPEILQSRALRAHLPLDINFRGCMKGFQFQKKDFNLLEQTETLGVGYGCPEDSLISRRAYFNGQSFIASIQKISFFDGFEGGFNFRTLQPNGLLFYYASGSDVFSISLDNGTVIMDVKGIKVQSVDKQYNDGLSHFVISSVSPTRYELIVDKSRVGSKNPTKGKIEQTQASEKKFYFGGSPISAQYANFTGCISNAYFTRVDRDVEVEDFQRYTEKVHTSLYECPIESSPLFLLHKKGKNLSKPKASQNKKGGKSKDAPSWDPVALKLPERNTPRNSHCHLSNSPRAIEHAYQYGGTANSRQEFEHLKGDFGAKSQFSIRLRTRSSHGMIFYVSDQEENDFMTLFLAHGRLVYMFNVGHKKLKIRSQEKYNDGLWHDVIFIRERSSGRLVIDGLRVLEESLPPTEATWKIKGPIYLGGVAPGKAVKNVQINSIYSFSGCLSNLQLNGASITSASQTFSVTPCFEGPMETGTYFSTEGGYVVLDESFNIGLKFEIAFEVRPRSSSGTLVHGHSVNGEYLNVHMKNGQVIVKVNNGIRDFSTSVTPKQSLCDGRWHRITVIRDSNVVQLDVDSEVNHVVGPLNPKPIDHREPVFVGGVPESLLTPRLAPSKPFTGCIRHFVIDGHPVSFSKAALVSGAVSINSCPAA

What was measured:
Assay in all cases: ELISA; plates coated with 50 nM GF or chemokine in PBS; 10 nM laminin isoform in PBS added; bound laminin detected with anti-LAMC1 or anti-LAMA3 polyclonal antibody; A450 signals greater than 0.1 taken as binding; BSA-coated wells as control; both purified
BMP-2 = biological target: T1, BMP-2 (UniProt P12643)
T1 sequence: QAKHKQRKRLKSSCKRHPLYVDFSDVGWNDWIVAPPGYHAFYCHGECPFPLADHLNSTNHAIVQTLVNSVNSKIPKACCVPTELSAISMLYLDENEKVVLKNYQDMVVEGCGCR

BMP-3 = biological target: T2, BMP-3 (UniProt P12645)
T2 sequence: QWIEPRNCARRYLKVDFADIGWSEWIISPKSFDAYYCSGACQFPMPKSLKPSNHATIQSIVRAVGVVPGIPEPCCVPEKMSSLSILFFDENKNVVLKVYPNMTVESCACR

BMP-7 = BMP-7 (UniProt P18075)
CXCL-11 = biological target: T3, CXCL-11 (UniProt O14625)
T3 sequence: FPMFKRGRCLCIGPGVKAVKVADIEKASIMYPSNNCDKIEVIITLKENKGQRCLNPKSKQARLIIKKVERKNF

CXCL-12α = CXCL-12α (UniProt P48061)
[1] = biological target: C–X–C motif ligand (CXCL)-12γ (UniProt P48061)
FGF-1 = FGF-1 (UniProt P05230)
FGF-10 = biological target: T4, FGF-10 (UniProt O15520)
T4 sequence: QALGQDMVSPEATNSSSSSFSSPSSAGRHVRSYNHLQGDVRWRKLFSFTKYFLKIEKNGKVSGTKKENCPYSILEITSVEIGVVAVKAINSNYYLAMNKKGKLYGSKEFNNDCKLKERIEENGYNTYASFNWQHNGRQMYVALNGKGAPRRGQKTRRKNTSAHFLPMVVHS

FGF-18 = FGF-18 (UniProt O76093)
FGF-2 (human) = FGF-2 (human) (UniProt P09038)
FGF-6 = biological target: T5, FGF-6 (UniProt P10767)
T5 sequence: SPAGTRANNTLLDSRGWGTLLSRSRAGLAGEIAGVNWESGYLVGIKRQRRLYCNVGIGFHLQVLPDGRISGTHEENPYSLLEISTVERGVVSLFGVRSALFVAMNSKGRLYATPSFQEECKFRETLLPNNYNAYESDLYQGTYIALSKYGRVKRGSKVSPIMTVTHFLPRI

FGF-7 = biological target: T6, FGF-7 (UniProt P21781)
T6 sequence: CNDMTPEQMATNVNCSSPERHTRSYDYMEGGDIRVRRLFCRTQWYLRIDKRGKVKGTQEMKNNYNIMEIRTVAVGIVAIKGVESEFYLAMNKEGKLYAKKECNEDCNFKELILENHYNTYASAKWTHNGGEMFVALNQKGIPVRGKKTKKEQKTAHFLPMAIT

IGF-1 = IGF-1 (UniProt P05019)
[2] = biological target: heparin-binding epidermal growth factor (HB-EGF) (UniProt Q99075)
[3] = biological target: platelet-derived growth factor PDGF-BB (human) (UniProt P01127)

Substance	binding (BMP-2)	binding (BMP-3)	binding (BMP-7)	binding (CXCL-11)	binding (CXCL-12α)	binding [1]	binding (FGF-1)	binding (FGF-10)	binding (FGF-18)	binding (FGF-2 (human))	binding (FGF-6)	binding (FGF-7)	binding (IGF-1)	binding [2]	binding [3]
recombinant human laminin-411 (from UniProt Q16363 25-1823; P07942 22-1786; P11047 34-1609) (complex)	binds	binds	no binding (tested: 10 nM laminin)	no binding (tested: 10 nM laminin)	no binding (tested: 10 nM laminin)	binds	no binding (tested: 10 nM laminin)	binds	binds	binds	no binding (tested: 10 nM laminin)	binds	no binding (tested: 10 nM laminin)	binds weakly	binds
recombinant human laminin-421 (from UniProt Q16363 25-1823; P55268 33-1798; P11047 34-1609) (complex)	binds	binds	no binding (tested: 10 nM laminin)	no binding (tested: 10 nM laminin)	no binding (tested: 10 nM laminin)	binds	no binding (tested: 10 nM laminin)	binds	binds	binds	no binding (tested: 10 nM laminin)	binds	no binding (tested: 10 nM laminin)	binds weakly	binds
